# Measurements published in PubChem BioAssay AID686979 (National Center for Advancing Translational Sciences (NCATS), 2013).
# Out of some 420,000 compounds screened, about 50,000 (12%) were called active. Inconclusive means that the source gave no clear call. Such entries were picked first, then a sample of the others. Calls follow the shape of the dose curve; as a rule, active = well fitted inhibition curve with a large enough effect; inconclusive = small, poorly fitted or top-dose-only effect; inactive = flat fitted curve, though single readings scatter. No potency is given beside an inconclusive call; the fits are too rough.
# Assay: qHTS for Inhibitors of human tyrosyl-DNA phosphodiesterase 1 (TDP1): qHTS in cells in presence of CPT; also: nearly all actives have a fitted effect of over 55% in size
# Settings: chicken DT40 Tdp1-/-;hTDP1 cells + 20 nM CPT, ATP luminescence, 48 h; series mostly up to 46.2 µM
# How it was run: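 Chicken DT40 Tdp1-/- cells complemented with human TDP1, 400 cells/well, exposed to compounds plus 20 nM camptothecin for at least 48 h at 37 C; viability read as ATP content by CellTiter-Glo luminescence.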
# Potency is read from the fitted curve at half-maximal effect; tags tell the direction and shape of the fitted curve.
row,SMILES,Potency
1,O=C(CC(=O)NCCc1ccccc1)NCCc1ccccc1,inactive
2,O=C(Nc1cccc(NC(=O)c2cccc(Cl)c2)c1)c1cccnc1,"inconclusive [inhibitor, single point]"
3,CCN1/C(=C\C=C(C(C)=O)C(C)=O)Sc2ccccc21,"inconclusive [inhibitor, single point]"
4,COc1cccc(N2CCN(C(=O)C3CCN(S(=O)(=O)c4c(C)noc4/C=C/c4ccccc4F)CC3)CC2)c1,"inconclusive [inhibitor, single point]"
5,Cc1nccn1CCC1CCCCN1C(=O)CCc1nnc(-c2ccsc2)o1 (stereo unspecified),inactive
6,O=C(NCC(=O)N1CCOCC1)c1ccc(Br)o1,"inconclusive [inhibitor, single point]"
7,COC(=O)[C@H](C)NC(=O)Nc1ccc(Oc2ccccc2)cc1,"inconclusive [inhibitor, single point]"
8,CCc1ccccc1OCC(=O)Nc1nc(-c2cccnc2)cs1,active: 3.26 µM
9,c1ccc(-c2cc(N3CCOCC3)nc3ccccc23)cc1,"inconclusive [inhibitor, single point]"
10,O=C(COc1ccccc1C(=O)OCC(=O)Nc1cccc2ccccc12)Nc1ccc(Br)cc1,"inconclusive [inhibitor, single point]"
11,CC(=O)Oc1ccc(C(=O)[C@H]2[C@H]3C(=O)N(c4ccc5ccccc5c4)C(=O)[C@H]3[C@@H]3C=CC=NN32)cc1,"inconclusive [inhibitor, single point]"
12,O=C(Nc1ccc(Cl)c(Cl)c1)NC1CCS(=O)(=O)C1 (stereo unspecified),inactive
13,CCC(=O)Nc1ccc(C(=O)N/N=C/c2ccc([N+](=O)[O-])cc2)cc1,"inconclusive [inhibitor, single point]"
14,Nc1nnc(SCC(=O)Nc2cc(F)ccc2F)s1,inactive
15,Cc1ccccc1C(=O)Nc1ccc2nc(N3CCCCC3)cc(C)c2c1,"inconclusive [inhibitor, single point]"
16,COCCCNC(=S)N(CCCO)Cc1cc2cc3c(cc2[nH]c1=O)OCCO3,inactive
17,O=C(CCSc1ccc(F)cc1)Nc1ccc(-n2cnnn2)cc1,"inconclusive [inhibitor, single point]"
18,O=C1C=C(c2c(O)ccc3ccccc23)c2ccccc2C1=O,active: 1.16 µM
19,Cc1ccccc1NC(=O)Cc1nc(COC(=O)c2ccc(NC(N)=O)cc2)cs1,"inconclusive [inhibitor, single point]"
20,CN(CC(=O)Nc1ccncc1)S(=O)(=O)c1ccc(Br)cc1,"inconclusive [inhibitor, partial curve]"
21,COc1ccc(-c2[nH]c3ccccc3c2SCCNC(=O)c2cc3ccccc3oc2=O)cc1,"inconclusive [inhibitor, single point]"
22,Clc1ccc(Oc2nc(N3CCOCC3)nc(N3CCOCC3)n2)c(C2CCCCC2)c1,"inconclusive [inhibitor, single point]"
23,N#CC1(Nc2ccc(-c3ccc(NC4(C#N)CCCC4)cc3)cc2)CCCC1,inactive

row,SMILES,Potency
1,Cn1nnnc1SCc1ccc(CSc2nnnn2C)cc1,inactive
2,COc1ccccc1N1CCN(S(=O)(=O)/C=C/c2ccccc2)CC1,"inconclusive [inhibitor, single point]"
3,O=Cc1cn(-c2ccccc2)nc1-c1ccccn1,inactive
4,Cc1cc(Cl)c(S(=O)(=O)N2CCN(c3ccccn3)CC2)cc1OCC(N)=O,inactive
5,CCOC1=C2[C@@H](CN(S(=O)(=O)c3ccc(C)cc3)[C@H]2c2ccccc2F)[C@H]2C(=O)N(C3CCCCC3)C(=O)[C@H]2C1,"inconclusive [inhibitor, single point]"
6,O=C1NCCN(Cc2ccoc2)C1CC(=O)N(CCO)Cc1ccccc1 (stereo unspecified),inactive
7,Cc1cccc(NC2=NC(C)(C)N=C(N)N2)c1,active: 0.461 µM
8,CC(C)Cn1c(-c2cccs2)nc2nc3ccccc3nc21,active: 16.4 µM
9,O=C(NCCC1=CCCCC1)c1ccc(Cl)c(S(=O)(=O)Nc2ccccc2)c1,inactive
10,CCN1CCN(C(c2cccs2)C(C)NS(=O)(=O)c2ccc(Br)cc2)CC1 (stereo unspecified),"inconclusive [inhibitor, partial curve]"
11,CCC(=O)N1CCc2cc(Br)c(S(=O)(=O)CCC(=O)NCCc3ccccc3)cc21,inactive
12,COc1ccc(N2CCN(C(=O)C3CCCN(S(=O)(=O)c4c(C)noc4C)C3)CC2)cc1 (stereo unspecified),"inconclusive [inhibitor, single point]"
13,Cc1ccccc1Cn1cc(NC(=O)COc2ccccc2)cn1,"inconclusive [inhibitor, partial curve]"
14,O=C(NCCc1ccc(Cl)cc1)c1ccc(CS(=O)(=O)c2ccc(Cl)cc2)o1,active: 16.4 µM
15,Cc1nc(-c2ccc(Cl)cc2)sc1C1(C)CC(c2ccc(F)cc2)=NO1 (stereo unspecified),inactive
16,O=C1S/C(=C\C=C\c2ccco2)C(=O)N1c1ccccc1,"inconclusive [inhibitor, single point]"
17,CC(C)(C)c1ccc(Cn2nnc3c(=O)[nH]c(C4CCN(C(=O)Cc5cccs5)CC4)nc32)cc1,"inconclusive [inhibitor, single point]"
18,Cc1ccc(C)n1-c1ccc(C(=O)NN=C2CCCC2)cc1,inactive
19,O=C1C(=O)N(CCCc2ccccc2)c2ccccc21,active: 2.06 µM
20,N#C/C(=C\c1cccs1)C(=O)Nc1ccccn1,"inconclusive [inhibitor, full curve, poor fit]"
21,Cc1cc(C(=O)N/N=C/c2ccc(Cl)c([N+](=O)[O-])c2)c(C)n1-c1ccc(F)cc1,active: 23.1 µM
22,COc1ccc(Nc2nnc(-c3ccc(C)cc3)c3ccccc23)cc1C(=O)N1CCCCC1,"inconclusive [inhibitor, single point]"
23,CCOc1cc(CNc2ccc3cn[nH]c3c2)ccc1OC,"inconclusive [inhibitor, single point]"
